In one experiment the target is T1, mouse Siglec-15 (Mus musculus, UniProt A7E1W8).
T1 construct: HEK293T cells were genetically engineered to express full-length mouse Siglec-15; expressed in transfected cells; host or cells: HEK293T
T1 sequence (A7E1W8 24-342): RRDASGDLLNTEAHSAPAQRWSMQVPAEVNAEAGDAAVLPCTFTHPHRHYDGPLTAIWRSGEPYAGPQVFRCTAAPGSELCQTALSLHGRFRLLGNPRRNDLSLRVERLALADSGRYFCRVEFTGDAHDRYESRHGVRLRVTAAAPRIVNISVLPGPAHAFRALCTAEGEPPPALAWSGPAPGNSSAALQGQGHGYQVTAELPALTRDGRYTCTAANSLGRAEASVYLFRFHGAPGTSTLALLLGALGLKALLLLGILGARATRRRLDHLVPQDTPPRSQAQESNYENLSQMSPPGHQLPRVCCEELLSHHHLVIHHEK
Nature of the experiment: Titration on HEK293T cells expressing mouse Siglec-15 (flow cytometry). The class given is binding. Conditions: titrated from 10 μg/ml. As to the method:
Cross-species reactivity and domain-specific binding of the full-length anti-Siglec-15 antibody candidates were evaluated. The antibodies were titrated against HEK293T cells expressing mouse Siglec-15 or HEK293T cells expressing a truncated human Siglec-15 consisting solely of domain 2 (FIG. 9). […] However, the binding to mouse Siglec-15 was evident for all tested antibodies, with EC50 values calculated to rank the affinity of the antibodies.
For the ELISA, antigens were immobilized on high-binding plates, and the full-length IgG1 anti-Siglec-15 antibodies were titrated beginning at a concentration of 10 μg/ml. After washing, an anti-human IgG Fab-specific HRP-conjugated secondary antibody was applied for detection. Palivizumab was included as the negative control. Optical densities were measured to generate binding curves from which EC50 values were derived. In the flow cytometry assay, MOLM-13 cells expressing human Siglec-15 and MOLM-13 wild-type cells (negative control) were incubated with titrated antibodies starting at 10 μg/ml. After incubation, cells were washed and incubated with an anti-human Fc-specific secondary antibody conjugated with a fluorescent marker. Flow cytometric analysis was conducted, and fluorescence intensity was used to calculate EC50 values, providing a quantitative assessment of the antibodies' cell surface binding efficacy. HEK293T cells were genetically engineered to express full-length mouse Siglec-15 and a truncated version of human Siglec-15 encompassing only domain 2. Antibodies were titrated starting at a concentration of 10 μg/ml and detected with an anti-human Fc-specific secondary antibody to detect bound primary antibodies. The half-maximal effective concentration (EC50) was calculated for each antibody to determine its binding affinity to mouse Siglec-15. Results were analyzed and ranked based on the EC50 values.
A general note: Flow cytometry measures light scatter and fluorescence of single cells or particles in a stream.

The next experiment has as its target T2, human Siglec-15 (Homo sapiens, UniProt Q6ZMC9).
T2 construct: expressed in transfected cells
T2 sequence (Q6ZMC9 20-328): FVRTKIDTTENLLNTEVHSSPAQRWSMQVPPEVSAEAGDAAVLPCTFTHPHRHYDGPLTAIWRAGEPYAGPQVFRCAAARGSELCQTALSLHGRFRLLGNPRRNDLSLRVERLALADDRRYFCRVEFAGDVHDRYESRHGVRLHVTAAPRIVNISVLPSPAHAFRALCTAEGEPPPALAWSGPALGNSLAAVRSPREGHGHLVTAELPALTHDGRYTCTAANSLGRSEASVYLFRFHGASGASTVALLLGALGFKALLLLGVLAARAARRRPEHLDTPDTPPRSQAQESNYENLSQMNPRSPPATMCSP
Nature of the experiment: Competitive flow cytometry assay with benchmark antibodies. The class given is binding. As to the method:
Epitope mapping assay by Flow cytometry: Competition with benchmark mouse IgG antibodies: 50,000 cells/well of THP-1 S15 OE were added to a round bottom 96 well plate, and centrifuged at 450×G for 5 minutes, and the supernatant was discarded. Human anti-siglec-15 IgG antibodies (starting at 198 nM, 3-fold serial dilution in staining buffer) were added to 100 μl of staining buffer and cells were resuspended with it and incubated for 40 minutes on ice. 100 μl of staining buffer were added to wells, centrifuged at 450× G for 5 minutes and the supernatants discarded. Benchmark mouse IgG antibodies were diluted at 33.3 nM and cells resuspended in 100 μl of the mix and incubated for 40 minutes on ice. Then, 100 μl of staining buffer were added to wells, centrifuged at 450×G for 5 minutes and the supernatants discarded. The secondary antibody anti-mouse IgG-Alexa647 was prepared at 1:200 dilution in 100 μl of staining buffer and added to each well, and cells were incubated for 40 minutes on ice. Cells were washed with 100 μl of staining buffer and centrifuged at 450×G for 5 minutes to discard the supernatant. Cells were resuspended in 150 μl of staining buffer and acquired in a flow cytometer.

B1: ZLA-1243-A01: fully human anti-Siglec-15 IgG1, silenced Fc, phage display; VH SEQ ID NO: 26, VL SEQ ID NO: 27 (antibody, V domains shown)
VH: [sequence of about 100 residues not given]DNEWTPGSFFDYWGQGTLVTVSS
VL: QSALTQPASVSGSPGQSITISCTGTSSDVGGYNYVSWYQQHPGKAPKLMIYDVSNRPSGVSNRFSGSKSGNTASLTISGLQAEDEADYYCSSYTSSSTRVFGGGTKVTVL
modifications: IgG1 silenced Fc; ZLA-1243-A01 VH; ZLA-1243-A01 VL
For the molecule B1, the “EC50 (ng/mL) mS15” value in the experiment with mouse Siglec-15 amounted to 75.28 ng/mL. Also, the “inhibition of binding of A2A5C7E8 (benchmark 2)” value with human Siglec-15 (across all concentrations (FIG. 18D)) is reported as “outperformed 5G12”. Further, in the experiment with human Siglec-15 (at concentrations above 10 nM (FIG. 18C)), the “inhibition of binding of 5G12 (benchmark 1)” value is recorded as “outperformed A2A5C7E8”.

The values are drawn from US20250361297A1, “ANTI- SIGLEC-15 BINDING MOLECULES AND METHODS OF USE” (ADAPTAM THERAPEUTICS, S.L., priority 2024, published 2025).
